Assay results from PubChem BioAssay AID488969 (Vanderbilt High Throughput Screening Facility, 2010).
In all, about 110,000 compounds were measured (“z-score”: median about -0.1, highest 2% from about 2 on). Some of the results follow. The source made the active and inactive calls.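 Rule for the calls: active = z-score in the third read window above 3 or below -3; inactive = the rest.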

The molecules below were run against Metabotropic glutamate receptor 8 (Rattus norvegicus) (UniProt P70579) (assay: rat mGluR8 modulators via GIRK flux, primary screen, cell-based, thallium flux, HTS (AID 488969)). Conditions: HEK293 rat mGluR8, GIRK (G protein-gated inwardly rectifying potassium channel) thallium flux, FluoZin2; at 10 µM; stronger effect = higher value; submaximal glutamate (EC20) added with thallium.
Sequence of UniProt P70579 (P70579 whole entry, looked up): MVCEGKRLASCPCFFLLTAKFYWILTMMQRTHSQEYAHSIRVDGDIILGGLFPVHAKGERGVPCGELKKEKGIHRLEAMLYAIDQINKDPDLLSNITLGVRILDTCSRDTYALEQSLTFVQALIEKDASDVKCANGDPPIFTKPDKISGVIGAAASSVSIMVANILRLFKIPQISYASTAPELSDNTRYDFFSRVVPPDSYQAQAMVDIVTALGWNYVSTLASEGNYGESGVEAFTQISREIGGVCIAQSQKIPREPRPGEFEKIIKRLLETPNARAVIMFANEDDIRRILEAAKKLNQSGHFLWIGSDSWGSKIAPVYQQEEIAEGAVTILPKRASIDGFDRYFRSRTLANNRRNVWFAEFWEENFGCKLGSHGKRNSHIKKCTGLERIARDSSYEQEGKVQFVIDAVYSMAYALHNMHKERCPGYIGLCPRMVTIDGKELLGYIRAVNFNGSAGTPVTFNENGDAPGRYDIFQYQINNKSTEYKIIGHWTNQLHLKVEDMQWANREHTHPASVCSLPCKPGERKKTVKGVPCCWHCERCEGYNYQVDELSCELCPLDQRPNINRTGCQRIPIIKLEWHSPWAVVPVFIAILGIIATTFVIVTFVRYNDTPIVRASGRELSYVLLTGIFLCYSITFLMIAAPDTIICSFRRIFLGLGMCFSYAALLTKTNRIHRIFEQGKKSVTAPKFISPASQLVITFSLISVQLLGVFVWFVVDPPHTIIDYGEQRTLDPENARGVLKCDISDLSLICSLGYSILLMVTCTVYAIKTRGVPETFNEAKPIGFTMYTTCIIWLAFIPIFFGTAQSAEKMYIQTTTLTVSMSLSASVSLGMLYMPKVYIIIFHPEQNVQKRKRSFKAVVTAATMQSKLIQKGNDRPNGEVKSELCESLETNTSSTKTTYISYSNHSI

SMILES | z-score
COc1cc2c(C(=O)N3CCN(C4CCCCC4)CC3)cn(CC(C)C)c(=O)c2cc1OC | 2.68
CCCn1c(-c2ccc(F)cc2)cnc1SCC(=O)O | -0.678
CCOC(=O)N1CCN(C(=O)CN(c2ccc3c(c2)OCO3)S(C)(=O)=O)CC1 | 0.564
Cc1ccc(C)c(NS(=O)(=O)c2ccc(OCC(=O)N3CCOCC3)cc2)c1 | -0.409
OCCN(CCO)CC(O)COc1ccc(C23CC4CC(CC(C4)C2)C3)cc1 (stereo not drawn) | 0.258
CCCCCCCNC1=CC(=O)CC(c2ccco2)C1 (stereo not drawn) | -0.08
Cc1ccc(C(=O)O/N=C/c2c(C(F)(F)F)nn(C)c2Sc2ccc(Cl)cc2)cc1 | -0.698
COC(=O)Nc1ccc(NC(C)=O)cc1 | 1.52
CCOc1ccccc1CSc1nc2ccccc2[nH]1 | 0.599
CCOC(=O)C(=O)N=Nc1c(O)[nH]c2ccccc12 | -0.0577
CC1(C)CC(=O)C2=C(C1)N(c1ccc(Cl)cc1)C(=O)C2(O)C(F)(F)F (stereo not drawn) | -0.341
CCOc1ccc(NS(=O)(=O)c2ccc(NS(=O)(=O)c3ccccc3)cc2)cc1 | -0.538
CC1Cc2ccccc2N1C(=O)CN(C)S(=O)(=O)c1cccc2cccnc12 (stereo not drawn) | 0.261
CCCCNC(=O)CSc1nc2cc(OC)c(OC)cc2c(=O)n1Cc1ccc(OC)cc1 | -0.298
COc1ccc(CN2C3CCCC2CC(NC(=O)Nc2ccccc2C)C3)cc1 (stereo not drawn) | -0.0636
COc1ccc(OC)c(-n2c(-c3ccc(C)cc3)n[nH]c2=S)c1 | 0.501
O=C(NC1CC2CCCC(C1)N2CC(=O)N1CCCc2ccccc21)C1CCCCC1 (stereo not drawn) | -0.505
CCOC(=O)Nc1ccc(C(N)=O)cc1 | -0.0604
COC(=O)CNC(=O)CSc1nnc(C)c(=O)[nH]1 | -0.199
Cc1noc(C)c1S(=O)(=O)N(CC(=O)Nc1ccc2c(c1)OCCO2)c1ccc(C(C)C)cc1 | -0.068
C(=N\Nc1nc(N2CCOCC2)nc(N2CCOCC2)n1)/c1cccnc1 | 0.593
CCOC(=O)c1cccc(NC(=O)CSc2nnnn2CC)c1 | 1.72
CCCN(Cc1ccccc1)C(=S)Nc1ccc(OC(F)F)cc1 | 1.61

SMILES | z-score
CC(C)N(C(=O)c1ccc2nc3c4ccccc4c4ccccc4c3nc2c1)C(C)C | 0.179
CCCOc1ccc(NC2=CC(=O)CC(C)(C)C2)cc1 | 0.0931
Cc1cc(Br)ccc1SCC(=O)OCC(=O)Nc1ncc(C(F)(F)F)cc1Cl | -0.668
CCOC(=O)Cn1c(=O)oc2cc(S(=O)(=O)N3CCC(N4CCCCC4)CC3)ccc21 | 0.198
O=C(NCCc1cn2ccccc2n1)C1CCCCC1 | 0.268
CC(C)(C)NS(=O)(=O)c1ccc2nc(NC(=O)Cc3cccs3)sc2c1 | -0.427
CCn1c(O)c(N=NC(=O)c2ccc(CSc3nncn3C)cc2)c2ccccc21 | -0.256
O=C(CSc1nc(-c2ccccc2)c(-c2ccccc2)[nH]1)Nc1nccs1 | -0.297
CCn1c(SCC(=O)NC)nnc1C(C)C | -0.182
COc1ccc(C(C(=O)NC2CCCC2)N(C(=O)c2ccoc2C)c2ccc(C)c(C)c2)cc1 (stereo not drawn) | -0.292
Cc1ccc(SCCC(=O)Nc2ccc(Br)c(C)c2)cc1 | -0.0218
CCOc1ccc2nc(NC(=O)c3ccoc3C)sc2c1 | -0.855
C1=Nc2c(Nc3ccccc3)ncnc2Oc2ccccc21 | -1.41
CN(CCC#N)C(=O)COC(=O)c1c2c(nc3ccccc13)/C(=C/c1ccco1)CC2 | -0.177
COc1ccc(NC2=CC(=O)CC(c3ccc(C)cc3)C2)c(OC)c1 (stereo not drawn) | -0.296
Cc1sc2nc(CSc3nnnn3-c3ccc(Cl)cc3)[nH]c(=O)c2c1C | -0.255
CC1C/C(=N/NC(=O)c2cccs2)CC(C)(C)C1 (stereo not drawn) | 0.0467
N#Cc1ccc(-c2ccccc2)nc1SCC(=O)c1cc2ccccc2oc1=O | -0.35
O=C(NCc1ccc2c(c1)OCO2)c1ccc(NS(=O)(=O)c2ccc3c(c2)OCCO3)cc1 | -0.267
COc1cc(C)ccc1OCCOCCOc1cc(C)c(C)cc1Br | -0.0614
Cc1cc(C(=O)N/N=C/c2c[nH]c3ccccc23)c(C)o1 | 1.24
CCOC(=O)C1CCCCN1Cc1ccc(OC)c(OC)c1OC (stereo not drawn) | -0.361
O=C(Nc1ccccc1N(C(=O)c1ccco1)S(=O)(=O)c1cccs1)c1ccco1 | -0.191

SMILES | z-score
COc1ccc(/C(O)=C2\C(=O)C(=O)N(c3cc(C)on3)C2c2ccccc2OC)cc1 (stereo not drawn) | -1.82
Cc1cc(C(C)(C)C)ccc1OCCn1ccnc1 | -0.144
Cc1nn(-c2ccccc2Cl)c2sc(C(=O)Nc3nnc(C4CC4)s3)cc12 | -0.611
COc1ccc(CC(=O)N2CCN(c3ccc(C4=NNC(=O)CC4C)cc3)CC2)cc1 (stereo not drawn) | -0.0788
COC(=O)c1cccc(Nc2nc3ccccc3nc2C)c1 | -0.459
CC1CCOC(c2coc3ccccc3c2=O)O1 (stereo not drawn) | -0.579
O=C(COc1ccc2c(C(F)(F)F)cc(=O)oc2c1)Nc1ccc2c(c1)OCCO2 | -0.0135
CCc1ccc(C2NC(=S)NC3=C2C(=O)N(c2ccccc2OC)C(c2ccc(CC)cc2)N3)cc1 (stereo not drawn) | 0.295
C=CCn1c(SCC(=O)NC2CCS(=O)(=O)C2)nnc1-c1cc2c(s1)CCC(CC)C2 (stereo not drawn) | -1.13
CC(C)C1Cc2c(sc3c2c(=O)n(-c2ccccc2)c2nncn32)CO1 (stereo not drawn) | -0.448
COc1ccc(/C=c2/sc3nc(-c4ccccc4)c(-c4ccccc4)n3c2=O)cc1 | 0.0337
COc1ccc2c(=O)c(N3C(=O)c4ccccc4C3=O)coc2c1 | 0.874
CC(C)C(=O)Nc1nnn(C)n1 | active: 9.51
c1csc(Cc2nc(-c3ccc(-n4cccc4)cc3)no2)c1 | 0.247
O=C1CC(N2CCN(Cc3ccc4c(c3)OCO4)CC2)C(=O)N1Cc1ccc(N2CCCC2=O)cc1 (stereo not drawn) | 0.112
O=C(CCS(=O)(=O)c1ccc(Br)s1)NCc1ccc2c(c1)OCO2 | -0.113
O=C(NCc1ccc2c(c1)OCO2)C1CCC(CNS(=O)(=O)c2cccc3nsnc23)CC1 (stereo not drawn) | 0.434
COc1ccc(OC)c(S(=O)(=O)Nc2ccc(C(N)=O)cc2)c1 | -0.0929
COc1c(Cl)cc(C(=O)Nc2ccccc2C(=O)O)cc1Cl | -1.61
O=C1C2CC=CCC2C(=O)N1c1n[nH]c(Cc2ccccc2)n1 (stereo not drawn) | -0.185
O=C(NCCN1CCOCC1)c1ccc(CS(=O)(=O)c2ccc(Cl)cc2)o1 | 0.125
CC(C)(C)c1nc(SCC(=O)Nc2ccc3c(c2)OCCO3)c2ccccc2n1 | -0.00419
